Source: the supplement of paper PMC7826260
Some of the results follow. One pool of 16,384 single-stranded DNAs met each Rep nickase domain in vitro (3 µM enzyme, 1 h, 37 °C); shown is the middle of each 90-letter strand. Values are log2 of uncut reads against the no-enzyme pool; strong cutting gives strongly negative numbers. There is no active / inactive call. Counts are relative to all reads, so uncut sequences can rise above 0 when many others are cut.

Columns and labels:
Assay in all cases: uncleaved DNA left, log2 of reads against the no-enzyme library (log2 ratio); higher = less cleavage (more negative = more Rep cleavage of the k-mer); sequences stand for … in CTCGTCCG…ACCGGAGA
[1] = test system: T1, Rep nickase domain of Muscovy duck circovirus
T1 sequence (protein, residues 1-111, tag omitted): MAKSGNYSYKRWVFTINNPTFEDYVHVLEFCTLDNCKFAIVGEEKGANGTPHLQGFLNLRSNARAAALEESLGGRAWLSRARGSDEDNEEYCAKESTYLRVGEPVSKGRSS
Experimental: (§1)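 A pool of 90-nt single-stranded DNAs with seven random bases just before the constant AC of the nick site (name = the seven bases) was cut by 3 µM recombinant His6-SUMO-tagged Rep nickase domain (300 nM DNA, 50 mM HEPES pH 8.0, 50 mM NaCl, 1 mM MnCl2, 1 h, 37 °C, three replicates). Uncut DNA was amplified and sequenced.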

[2] = test system: T2, Rep nickase domain of banana bunchy top virus
T2 sequence (protein, residues 1-94, tag omitted): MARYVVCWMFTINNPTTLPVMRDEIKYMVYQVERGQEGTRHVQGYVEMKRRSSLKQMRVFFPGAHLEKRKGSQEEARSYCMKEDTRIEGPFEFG
Experimental: as §1

[3] = test system: T3, Rep nickase domain of cabbage leaf curl virus
T3 sequence (protein, residues 1-116, tag omitted): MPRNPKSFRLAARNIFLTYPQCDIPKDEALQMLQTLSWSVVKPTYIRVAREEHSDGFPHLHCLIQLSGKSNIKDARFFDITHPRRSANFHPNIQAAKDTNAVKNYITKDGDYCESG
Experimental: as §1

[4] = test system: T4, Rep nickase domain of chickpea chlorotic dwarf virus
T4 sequence (protein, residues 1-124, tag omitted): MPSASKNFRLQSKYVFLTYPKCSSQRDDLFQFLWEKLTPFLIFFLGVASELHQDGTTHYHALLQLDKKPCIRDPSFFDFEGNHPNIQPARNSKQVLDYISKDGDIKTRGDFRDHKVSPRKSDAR
Experimental: as §1

[5] = test system: T5, Rep nickase domain of faba bean necrotic yellows virus
T5 sequence (protein, residues 1-98, tag omitted): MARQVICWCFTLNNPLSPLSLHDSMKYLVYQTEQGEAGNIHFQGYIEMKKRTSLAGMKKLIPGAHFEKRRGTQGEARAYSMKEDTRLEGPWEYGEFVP
Experimental: as §1

[6] = test system: T6, Rep nickase domain of maize striate mosaic virus
T6 sequence (protein, residues 1-117, tag omitted): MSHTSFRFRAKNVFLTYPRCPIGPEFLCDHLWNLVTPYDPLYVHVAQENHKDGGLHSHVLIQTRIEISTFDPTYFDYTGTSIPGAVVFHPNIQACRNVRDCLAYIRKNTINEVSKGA
Experimental: as §1

[7] = test system: T7, Rep nickase domain of porcine circovirus 2
T7 sequence (protein, residues 2-116, tag omitted): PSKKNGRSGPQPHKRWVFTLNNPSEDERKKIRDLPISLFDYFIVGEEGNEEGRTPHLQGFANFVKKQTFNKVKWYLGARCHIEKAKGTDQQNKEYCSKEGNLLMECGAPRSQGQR
Experimental: as §1

[8] = test system: T8, Rep nickase domain of tomato yellow leaf curl virus
T8 sequence (protein, residues 1-136, tag omitted): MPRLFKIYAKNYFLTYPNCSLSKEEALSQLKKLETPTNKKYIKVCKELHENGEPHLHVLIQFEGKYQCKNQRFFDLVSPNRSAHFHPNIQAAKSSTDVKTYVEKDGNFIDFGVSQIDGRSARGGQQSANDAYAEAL
Experimental: as §1

[9] = test system: T9, Rep nickase domain of wheat dwarf virus
T9 sequence (protein, residues 1-137, tag omitted): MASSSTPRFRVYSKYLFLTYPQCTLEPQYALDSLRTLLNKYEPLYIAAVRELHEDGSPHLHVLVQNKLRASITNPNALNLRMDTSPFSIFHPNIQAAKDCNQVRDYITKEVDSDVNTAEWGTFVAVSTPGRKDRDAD
Experimental: as §1

Sequence | uncleaved DNA left (log2) [1] | uncleaved DNA left (log2) [2] | uncleaved DNA left (log2) [3] | uncleaved DNA left (log2) [4] | uncleaved DNA left (log2) [5] | uncleaved DNA left (log2) [6] | uncleaved DNA left (log2) [7] | uncleaved DNA left (log2) [8] | uncleaved DNA left (log2) [9]
GCTAGGC | -0.0384 | -0.0564 | 0.218 | 0.588 | -0.039 | -0.178 | 0.0819 | 0.0622 | -0.0407
CGCTTGT | -0.224 | -0.195 | -0.222 | -0.227 | -0.251 | -0.482 | -0.55 | -0.129 | -0.154
TCACCCC | -0.142 | -0.118 | 0.0398 | -0.618 | -0.158 | -0.35 | -0.976 | -0.21 | -0.221
TGGCCCG | -0.084 | -0.0872 | -0.748 | -0.102 | -0.0155 | -0.645 | 0.0479 | -0.0938 | -0.0449
TGACTGC | 0.039 | -0.14 | 0.00313 | 0.528 | -0.168 | 1.32 | -0.142 | -0.166 | 0.00318
GTAATCT | -0.098 | 0.0797 | 0.252 | 0.65 | -0.0258 | 1.69 | 0.0843 | 0.011 | 0.0322
ATTTCCA | -0.139 | -0.0138 | -0.116 | -1.4 | 0.00241 | -0.403 | -0.285 | 0.00774 | 0.0455
TCGCGGA | 0.0815 | -0.0547 | 0.0214 | -0.0822 | 0.0501 | -0.421 | -0.0391 | 0.0518 | 0.0147
ACCGCAC | -0.201 | -0.249 | -0.302 | -0.442 | -0.0726 | -0.864 | -0.0954 | -0.156 | -0.12
GACCCTG | 0.0346 | 0.0181 | 0.385 | 1.17 | 0.0703 | 1.3 | 0.069 | -0.0349 | 0.0817
GACTCAA | 0.016 | 0.123 | 0.223 | 0.588 | 0.143 | 0.737 | -0.361 | 0.0465 | 0.0738
ATGTACA | -0.0807 | -0.0463 | -0.17 | -1.98 | -0.0344 | -0.471 | -0.401 | 0.019 | -0.00627
GTTCATA | -0.0178 | -0.0351 | 0.331 | 0.803 | -0.116 | 1.67 | 0.0161 | -0.0278 | 0.0398
AACAACC | -0.125 | -0.0507 | -0.126 | -2.05 | -0.0625 | -0.657 | -0.628 | -0.0562 | -0.00187
CAGTTGC | 0.162 | 0.0155 | -0.809 | -0.373 | 0.0916 | -1.06 | 0.027 | 0.104 | 0.0342
ACCACGG | -0.069 | -0.0595 | -0.184 | 0.168 | -0.0184 | -0.416 | 0.0771 | -0.0997 | -0.0791
CGGGAGG | 0.0265 | -0.047 | 0.413 | 0.842 | -0.174 | 0.739 | -0.0493 | -0.15 | -0.227
TGTGATA | 0.101 | 0.0479 | 0.286 | 0.672 | 0.172 | 1.44 | 0.0755 | 0.0094 | 0.0424
TGCATGG | 0.0731 | -0.00778 | 0.169 | 0.302 | -0.0351 | -0.164 | 0.112 | -0.0263 | -0.0665
GGCGCCG | -0.0075 | 0.0503 | -0.095 | -0.0143 | 0.0962 | -0.0083 | 0.116 | -0.00882 | 0.0488
CTCAGGA | -0.0103 | -0.0516 | 0.0624 | 0.667 | -0.0547 | 0.682 | -0.0176 | -0.172 | -0.137
CATAGCA | 0.154 | 0.101 | -0.449 | -0.897 | 0.0471 | -1.14 | 0.123 | 0.209 | 0.0692
GTCGGTT | 0.119 | 0.0167 | 0.382 | 0.723 | 0.0303 | 1.55 | 0.108 | -0.0274 | 0.093
GTCAGGT | -0.0351 | 0.0243 | 0.273 | 0.958 | -0.155 | 1.7 | 0.0393 | -0.0226 | -0.00497
GAAGGTC | -0.00567 | 0.0562 | 0.367 | 0.75 | -0.00863 | 1.18 | -0.198 | -0.0258 | 0.0762
GACACAT | -0.0643 | -0.0405 | 0.597 | 1.03 | -0.104 | 1.69 | 0.0366 | -0.0135 | 0.0454
TCCCTCT | -0.101 | -0.125 | -0.0391 | -1.86 | -0.0463 | -0.665 | -0.323 | -0.106 | -0.19
AGCCCCA | -0.0381 | -0.0126 | 0.523 | 1.05 | -0.142 | 1.62 | -0.0842 | -0.104 | 0.0493
AATAAGC | 0.0979 | 0.00403 | 0.025 | -0.402 | 0.115 | -1.04 | 0.215 | 0.069 | 0.0439
GCCGTGC | 0.101 | -0.018 | -0.261 | -0.11 | 0.0684 | -0.615 | 0.109 | 0.076 | -0.026
